Laboratory results published in the supplement of paper PMC4967469.
IC50 is the fitted dose that halves viability relative to control wells, and lower means more sensitive; a fit beyond the top or the lowest dose is shown as a bound at that dose. The AUC spans the tested range (256-fold, ending at the top dose) of the same fit; values near 1 show little effect. For some of these results: Where the top dose is marked as inferred, it is not printed in the source and was worked back from the curve model. For some of these results: Where an entry number is given, a second screen of the drug exists; the two often differ.

Experiments:
Test in all cases: Viability of human cancer cell lines after 72 h of drug (GDSC screen)
MLN4924 = compound: NS(=O)(=O)OC[C@@H]1C[C@@H](n2ccc3c(N[C@H]4CCc5ccccc54)ncnc32)C[C@@H]1O [MLN4924]; settings: top dose 1 µM; top dose inferred
Description: (§1)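 Human cancer cell lines in 384-well plates, medium with 10% serum, drug for 72 h over a 256-fold dose range (nine 2-fold or five 4-fold steps up to the top dose). Adherent lines were fixed and stained with the nucleic acid dye Syto60, suspension lines read with resazurin; signal relative to control wells, capped at 0 and 100%. One two-parameter sigmoid per drug and line, fitted in a mixed model over all curves with the slope shared within a line.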

BMN-673 = compound: Cn1ncnc1[C@H]1c2n[nH]c(=O)c3cc(F)cc(c23)N[C@@H]1c1ccc(F)cc1 [BMN-673]; settings: top dose 10 µM; top dose inferred
Description: as §1

AZD6482 = compound: Cc1cc([C@@H](C)Nc2ccccc2C(=O)O)c2nc(N3CCOCC3)cc(=O)n2c1 [AZD6482]
Description: as §1

NVP-BEZ235 = compound: Cn1c(=O)n(-c2ccc(C(C)(C)C#N)cc2)c2c3cc(-c4cnc5ccccc5c4)ccc3ncc21 [NVP-BEZ235]
Description: as §1

[1] = top dose 5 µM, screen: GDSC drug entry 1066, top dose inferred
[2] = top dose 5.12 µM, screen: GDSC drug entry 156

| Cell Line | AUC (NVP-BEZ235) | IC50 (NVP-BEZ235) [µM] | other results |
| --- | --- | --- | --- |
| BB49-HNC (head and neck, adherent) |  |  | AUC (MLN4924): 0.876; IC50 (MLN4924): > 1 µM; AUC (BMN-673): 0.657; IC50 (BMN-673): 2.05 µM |
| CAMA-1 (breast, adherent) |  |  | AUC (MLN4924): 0.878; IC50 (MLN4924): > 1 µM; AUC (AZD6482; [1]): 0.909; IC50 (AZD6482; [1]): > 5 µM; AUC (AZD6482; [2]): 0.624; IC50 (AZD6482; [2]): 0.77 µM |
| COR-L32 (small cell lung carcinoma, suspension) |  |  | AUC (MLN4924): 0.818; IC50 (MLN4924): > 1 µM; AUC (BMN-673): 0.959; IC50 (BMN-673): > 10 µM |
| HCC70 (breast, adherent) |  |  | AUC (MLN4924): 0.721; IC50 (MLN4924): 0.262 µM; AUC (AZD6482; [1]): 0.836; IC50 (AZD6482; [1]): 3.24 µM; AUC (AZD6482; [2]): 0.703; IC50 (AZD6482; [2]): 1.18 µM |
| HCC1806 (breast, adherent) |  |  | AUC (MLN4924): 0.379; IC50 (MLN4924): 0.0299 µM; AUC (AZD6482; [1]): 0.989; IC50 (AZD6482; [1]): > 5 µM; AUC (AZD6482; [2]): 0.955; IC50 (AZD6482; [2]): > 5.12 µM |
| HL-60 (acute myeloid leukaemia, suspension) |  |  | AUC (MLN4924): 0.864; IC50 (MLN4924): 0.73 µM; AUC (AZD6482; [1]): 0.728; IC50 (AZD6482; [1]): 1.28 µM; AUC (AZD6482; [2]): 0.896; IC50 (AZD6482; [2]): > 5.12 µM |
| HT-1080 (fibrosarcoma, adherent) |  |  | AUC (MLN4924): 0.401; IC50 (MLN4924): 0.0345 µM; AUC (AZD6482; [1]): 0.938; IC50 (AZD6482; [1]): > 5 µM; AUC (AZD6482; [2]): 0.988; IC50 (AZD6482; [2]): > 5.12 µM |
| HeLa (cervix, adherent) |  |  | AUC (MLN4924): 0.799; IC50 (MLN4924): 0.454 µM; AUC (AZD6482; [1]): 0.979; IC50 (AZD6482; [1]): > 5 µM; AUC (AZD6482; [2]): 0.968; IC50 (AZD6482; [2]): > 5.12 µM |
| JEKO-1 (B-cell lymphoma, suspension) |  |  | AUC (MLN4924): 0.968; IC50 (MLN4924): > 1 µM; AUC (AZD6482; [1]): 0.53; IC50 (AZD6482; [1]): 0.375 µM |
| KG-1 (acute myeloid leukaemia, suspension) |  |  | AUC (MLN4924): 0.935; IC50 (MLN4924): > 1 µM; AUC (AZD6482; [1]): 0.989; IC50 (AZD6482; [1]): > 5 µM; AUC (AZD6482; [2]): 0.958; IC50 (AZD6482; [2]): > 5.12 µM |
| LN-229 (glioma, adherent) |  |  | AUC (MLN4924): 0.752; IC50 (MLN4924): 0.329 µM; AUC (AZD6482; [1]): 0.943; IC50 (AZD6482; [1]): > 5 µM; AUC (AZD6482; [2]): 0.914; IC50 (AZD6482; [2]): > 5.12 µM |
| MOLT-16 (T-cell lymphoblastic leukaemia, suspension) |  |  | AUC (MLN4924): 0.727; IC50 (MLN4924): 0.235 µM; AUC (BMN-673): 0.263; IC50 (BMN-673): 0.157 µM |
| MV-4-11 (leukaemia, suspension) |  |  | AUC (MLN4924): 0.63; IC50 (MLN4924): 0.133 µM; AUC (AZD6482; [1]): 0.842; IC50 (AZD6482; [1]): 2.64 µM; AUC (AZD6482; [2]): 0.81; IC50 (AZD6482; [2]): 2.13 µM |
| PC-3 (prostate, adherent) |  |  | AUC (MLN4924): 0.761; IC50 (MLN4924): 0.429 µM; AUC (AZD6482; [1]): 0.883; IC50 (AZD6482; [1]): > 5 µM; AUC (AZD6482; [2]): 0.927; IC50 (AZD6482; [2]): > 5.12 µM |
| SK-ES-1 (Ewing sarcoma, semi-adherent) |  |  | AUC (MLN4924): 0.9; IC50 (MLN4924): > 1 µM; AUC (AZD6482; [1]): 0.887; IC50 (AZD6482; [1]): > 5 µM; AUC (AZD6482; [2]): 0.909; IC50 (AZD6482; [2]): > 5.12 µM |
| SNU-1040 (large intestine, adherent) |  |  | AUC (MLN4924): 0.926; IC50 (MLN4924): > 1 µM; AUC (BMN-673): 0.979; IC50 (BMN-673): > 10 µM |
| TE-6 (oesophagus, adherent, top dose 0.25 µM) | 0.864 | > 0.25 |  |
| TE-8 (oesophagus, adherent, top dose 0.25 µM) | 0.72 | 0.069 |  |
| TE-9 (oesophagus, adherent, top dose 0.25 µM) | 0.912 | > 0.25 |  |
| TE-10 (oesophagus, adherent, top dose 0.25 µM) | 0.901 | > 0.25 |  |
| TE-11 (oesophagus, adherent, top dose 0.25 µM) | 0.759 | 0.0806 |  |
| TE-12 (oesophagus, suspension, top dose 0.25 µM) | 0.733 | 0.0846 |  |
| TE-15 (oesophagus, suspension, top dose 0.25 µM) | 0.785 | 0.122 |  |

| Cell Line | AUC (NVP-BEZ235) | IC50 (NVP-BEZ235) [µM] | other results |
| --- | --- | --- | --- |
| TGBC1TKB (biliary tract, adherent, top dose 0.25 µM) | 0.566 | 0.0237 |  |
| TGBC11TKB (stomach, adherent, top dose 0.25 µM) | 0.897 | 0.246 |  |
| TGW (neuroblastoma, adherent, top dose 0.25 µM) | 0.731 | 0.0633 |  |
| THP-1 (acute myeloid leukaemia, suspension, top dose 0.25 µM) | 0.874 | 0.201 |  |
| TK10 (kidney, adherent, top dose 0.25 µM) | 0.766 | 0.111 |  |
| TK (B-cell lymphoma, suspension, top dose 0.25 µM) | 0.796 | 0.105 |  |
| TMK-1 (stomach, adherent, top dose 0.25 µM) | 0.788 | 0.116 |  |
| TOV-21G (ovary, adherent, top dose 0.25 µM) | 0.296 | 0.00393 |  |
| TOV-112D (ovary, adherent, top dose 0.25 µM) | 0.665 | 0.0451 |  |
| TT2609-C02 (thyroid, adherent, top dose 0.25 µM) | 0.561 | 0.0232 |  |
| TT (thyroid, adherent, top dose 2 µM) | 0.918 | > 2 |  |
| TUR (B-cell lymphoma, suspension, top dose 0.25 µM) | 0.544 | 0.0204 |  |
| TYK-nu (ovary, adherent, top dose 0.25 µM) | 0.459 | 0.012 |  |
| U031 (kidney, adherent) |  |  | AUC (MLN4924): 0.671; IC50 (MLN4924): 0.191 µM; AUC (AZD6482; [1]): 0.417; IC50 (AZD6482; [1]): 0.184 µM; AUC (AZD6482; [2]): 0.951; IC50 (AZD6482; [2]): > 5.12 µM |
| U031 (kidney, adherent, top dose 2 µM) | 0.442 | 0.0863 |  |
| U251 (glioma, adherent) |  |  | AUC (MLN4924): 0.66; IC50 (MLN4924): 0.17 µM; AUC (AZD6482; [1]): 0.931; IC50 (AZD6482; [1]): > 5 µM; AUC (AZD6482; [2]): 0.861; IC50 (AZD6482; [2]): 4.02 µM |
| U-87-MG (glioma, adherent, top dose 0.25 µM) | 0.882 | > 0.25 |  |
| U-118-MG (glioma, adherent, top dose 0.25 µM) | 0.769 | 0.109 |  |
| U-266 (myeloma, semi-adherent, top dose 0.25 µM) | 0.821 | 0.217 |  |
| U-698-M (B-cell leukaemia, suspension, top dose 0.25 µM) | 0.527 | 0.0185 |  |
| UACC-62 (melanoma, adherent, top dose 0.25 µM) | 0.842 | 0.173 |  |
| UACC-257 (melanoma, adherent, top dose 0.25 µM) | 0.853 | > 0.25 |  |
| UACC-893 (breast, adherent, top dose 2 µM) | 0.665 | 0.422 |  |

| Cell Line | AUC (NVP-BEZ235) | IC50 (NVP-BEZ235) [µM] | other results |
| --- | --- | --- | --- |
| UWB1.289 (ovary, adherent, top dose 0.25 µM) | 0.801 | 0.203 |  |
| VA-ES-BJ (soft tissue, adherent, top dose 0.25 µM) | 0.536 | 0.0197 |  |
| VAL (B-cell lymphoma, suspension, top dose 0.25 µM) | 0.571 | 0.0244 |  |
| VCaP (prostate, adherent, top dose 0.25 µM) | 0.914 | > 0.25 |  |
| VM-CUB-1 (bladder, adherent, top dose 0.25 µM) | 0.617 | 0.0323 |  |
| VMRC-LCD (lung adenocarcinoma, adherent, top dose 0.25 µM) | 0.815 | 0.11 |  |
| VMRC-RCZ (kidney, adherent, top dose 0.25 µM) | 0.549 | 0.0217 |  |
| WIL2-NS (lymphoid neoplasm, suspension, top dose 0.25 µM) | 0.834 | 0.122 |  |
| WM35 (melanoma, adherent, top dose 0.25 µM) | 0.531 | 0.0191 |  |
| WM793B (melanoma, adherent, top dose 0.25 µM) | 0.58 | 0.0266 |  |
| WM1552C (melanoma, adherent, top dose 0.25 µM) | 0.722 | 0.0669 |  |
| WM-115 (melanoma, adherent, top dose 0.25 µM) | 0.692 | 0.0616 |  |
| WSU-DLCL2 (B-cell lymphoma, suspension, top dose 0.25 µM) | 0.603 | 0.0284 |  |
| WSU-NHL (lymphoid neoplasm, suspension, top dose 0.25 µM) | 0.534 | 0.0191 |  |
| YAPC (pancreas, adherent, top dose 0.25 µM) | 0.879 | > 0.25 |  |
| YH-13 (glioma, adherent, top dose 0.25 µM) | 0.571 | 0.0246 |  |
| YKG-1 (glioma, adherent, top dose 0.25 µM) | 0.683 | 0.0513 |  |
| YT (lymphoid neoplasm, suspension, top dose 0.25 µM) | 0.547 | 0.0206 |  |
| ZR-75-30 (breast, adherent, top dose 0.25 µM) | 0.904 | > 0.25 |  |
| huH-1 (liver, adherent, top dose 0.25 µM) | 0.727 | 0.0816 |  |
| no-11 (glioma, adherent, top dose 0.25 µM) | 0.771 | 0.121 |  |
